Test results as given in the supplement of paper PMC6206098.
± gives the uncertainty stated by the source. The sequences are guide strands of siRNAs; only the seed at positions 2 to 7 varies.

How the values were obtained:
HeyA8 = experiment: cell viability relative to lipid-only control; higher = less toxic; conditions: concentration: 10 nM; 96 h; Homo sapiens
M565 = experiment: as above; conditions: concentration: 10 nM; 96 h; Mus musculus
H460 = experiment: as above; conditions: concentration: 10 nM; 96 h; Homo sapiens
3LL = experiment: cell viability relative to siNT1 control; HeyA8 human ovarian and H460 human lung cancer; M565 mouse liver and 3LL mouse lung cancer; siNT1 is a non-toxic control siRNA; higher = less toxic; conditions: concentration: 10 nM; 96 h; Mus musculus
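For cell viability relative to lipid-only control in this document: reverse lipid transfection in 384-well plates, in triplicate, of duplexes on a non-toxic 19mer backbone with passenger strand 2′-O-methylated at positions 1 and 2, luminescence viability read-out.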
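For cell viability relative to siNT1 control in this document: Luminescence-based viability of cells reverse transfected in 384-well plates with lipid-complexed siRNAs built on a non-toxic 19mer backbone whose passenger strand carries 2′-O-methyl groups at positions 1 and 2, triplicates.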

| Sequence | cell viability (HeyA8) [%] | cell viability (M565) [%] | cell viability (H460) [%] | cell viability (3LL) [%] |
| --- | --- | --- | --- | --- |
| UAAGGGGACAUGUAAACCAAA | 67.6 ± 5.1 | 63 ± 7 | 86.6 ± 8.8 | 79.5 ± 8.2 |
| UAGUUUCACAUGUAAACCAAA | 26.6 ± 1.4 | 70.9 ± 21 | 47.2 ± 11 | 75.9 ± 2.8 |
| UAGUCUCACAUGUAAACCAAA | 32.3 ± 4.3 | 9.31 ± 2.7 | 54.9 ± 11 | 4.77 ± 0.94 |
| UUGCUACACAUGUAAACCAAA | 31.2 ± 3.5 | 87.4 ± 12 | 17.3 ± 2.5 | 39.5 ± 7.7 |
| UAUAGGGACAUGUAAACCAAA | 84.6 ± 3.1 | 81.9 ± 2.1 | 71.3 ± 4.3 | 106 ± 13 |
| UUUGGCUACAUGUAAACCAAA | 87 ± 2 | 36.8 ± 4 | 46.5 ± 4.5 | 32.4 ± 0.94 |
| UCAUUUCACAUGUAAACCAAA | 13.4 ± 0.68 | 36.9 ± 7.5 | 31.4 ± 2 | 29.8 ± 1.4 |
| UUAAUCCACAUGUAAACCAAA | 37.6 ± 7 | 59.9 ± 6.3 | 32.8 ± 1.5 | 6.77 ± 0.72 |
| UCUUCUUACAUGUAAACCAAA | 88.4 ± 2.6 | 82.4 ± 15 | 56.2 ± 1.4 | 89.1 ± 8.7 |
| UCACCCGACAUGUAAACCAAA | 72 ± 1 | 63.2 ± 3.9 | 40.3 ± 5.7 | 87 ± 18 |
| UAGGCUUACAUGUAAACCAAA | 20.2 ± 1.9 | 24.6 ± 10 | 54.1 ± 3 | 65.3 ± 5.5 |
| UACACAGACAUGUAAACCAAA | 62 ± 6.5 | 35.1 ± 4.3 | 55.9 ± 6.7 | 89 ± 15 |
| UGGAGUGACAUGUAAACCAAA | 17.4 ± 5.3 | 57.7 ± 4.2 | 55.5 ± 1.4 | 87.3 ± 19 |
| UAGUGAGACAUGUAAACCAAA | 67.5 ± 2.8 | 43.9 ± 8 | 38.6 ± 8.3 | 67.7 ± 5.6 |
| UCGAGACACAUGUAAACCAAA | 77.5 ± 6.1 | 25 ± 3 | 71.7 ± 8.7 | 81.4 ± 16 |
| UUGGUGGACAUGUAAACCAAA | 13.4 ± 0.89 | 49.8 ± 8.9 | 9.15 ± 0.72 | 10.2 ± 1.6 |
| UGAUUACACAUGUAAACCAAA | 41 ± 1.8 | 36 ± 4.5 | 46.6 ± 13 | 56.3 ± 12 |
| UUAUUUAACAUGUAAACCAAA | 97.1 ± 1.4 | 111 ± 7 | 68.1 ± 4.9 | 95.2 ± 3.6 |
| UUGAGGCACAUGUAAACCAAA | 20 ± 2.3 | 10.6 ± 2.5 | 30.9 ± 1.2 | 1.95 ± 0.2 |
| UAAAUGUACAUGUAAACCAAA | 81.8 ± 5.4 | 66.7 ± 6.1 | 75 ± 11 | 85.2 ± 9.8 |

| Sequence | cell viability (HeyA8) [%] | cell viability (M565) [%] | cell viability (H460) [%] | cell viability (3LL) [%] |
| --- | --- | --- | --- | --- |
| UGGCAAGACAUGUAAACCAAA | 32.1 ± 0.8 | 30.9 ± 1.3 | 44.1 ± 3.1 | 75.3 ± 8.4 |
| UCUCAACACAUGUAAACCAAA | 83.4 ± 4.9 | 79.8 ± 12 | 45.7 ± 2 | 106 ± 19 |
| UAAUUACACAUGUAAACCAAA | 40 ± 4.2 | 49.4 ± 10 | 50 ± 8.4 | 57.4 ± 9.9 |
| UCGAUCAACAUGUAAACCAAA | 91.1 ± 4.7 | 54.8 ± 2.7 | 84.6 ± 14 | 92 ± 17 |
| UAUAAUCACAUGUAAACCAAA | 87.3 ± 6.2 | 65.3 ± 8.5 | 86.5 ± 10 | 91.2 ± 14 |
| UGCGCUCACAUGUAAACCAAA | 10.5 ± 0.95 | 62.3 ± 6.8 | 22.8 ± 6.6 | 32.5 ± 9.9 |
| UCGUGCCACAUGUAAACCAAA | 21.8 ± 3.5 | 25.7 ± 3.3 | 38.1 ± 1.3 | 43.8 ± 10 |
| UCCUGGAACAUGUAAACCAAA | 72.8 ± 4.4 | 31 ± 5.4 | 69.2 ± 1.5 | 69.3 ± 27 |
| UAAGGUCACAUGUAAACCAAA | 48.1 ± 5.2 | 10.6 ± 1.6 | 57.5 ± 7.5 | 42.4 ± 3 |
| UCAAUACACAUGUAAACCAAA | 62.9 ± 6.2 | 46.7 ± 9.7 | 57.2 ± 7.8 | 88.7 ± 19 |
| UGGAUACACAUGUAAACCAAA | 81.9 ± 7.4 | 75.5 ± 15 | 63.6 ± 8.1 | 71.1 ± 3.9 |
| UAUCUGAACAUGUAAACCAAA | 96.2 ± 9.2 | 102 ± 14 | 63.1 ± 6.1 | 108 ± 10 |
| UUACUGCACAUGUAAACCAAA | 80.1 ± 2.3 | 35.4 ± 8.5 | 82.9 ± 11 | 35.5 ± 3.1 |
| UGUUCACACAUGUAAACCAAA | 8.23 ± 1.4 | 34.9 ± 6.6 | 49.1 ± 5.3 | 93.4 ± 3.5 |
| UAAUCGGACAUGUAAACCAAA | 91 ± 7.3 | 77.6 ± 7.2 | 82 ± 20 | 85.9 ± 2.4 |
| UCCCCGUACAUGUAAACCAAA | 82.7 ± 4.6 | 41.7 ± 15 | 71.5 ± 14 | 75.1 ± 17 |
| UCUCACCACAUGUAAACCAAA | 70.1 ± 3.3 | 29.7 ± 11 | 27.1 ± 4.3 | 82.2 ± 18 |
| UACCUUGACAUGUAAACCAAA | 90.5 ± 6.4 | 64.4 ± 17 | 69.8 ± 12 | 87.8 ± 3.1 |
| UAUUCUAACAUGUAAACCAAA | 95 ± 9.4 | 91.6 ± 19 | 71.2 ± 2.1 | 99.9 ± 10 |
| UUCGACAACAUGUAAACCAAA | 91.9 ± 11 | 99.6 ± 16 | 63.1 ± 8 | 106 ± 9.3 |

| Sequence | cell viability (HeyA8) [%] | cell viability (M565) [%] | cell viability (H460) [%] | cell viability (3LL) [%] |
| --- | --- | --- | --- | --- |
| UCGGCCUACAUGUAAACCAAA | 47.8 ± 4.8 | 22 ± 6.2 | 53.5 ± 9.6 | 47 ± 12 |
| UGCGUACACAUGUAAACCAAA | 75.7 ± 5.4 | 78.9 ± 2.9 | 72.1 ± 4.6 | 92.3 ± 13 |
| UAUAUUAACAUGUAAACCAAA | 97.2 ± 6.8 | 101 ± 20 | 85.3 ± 19 | 103 ± 22 |
| UCAUUGCACAUGUAAACCAAA | 39.9 ± 4.7 | 28.2 ± 2 | 50.4 ± 3.4 | 70.2 ± 8 |
| UGCUGCAACAUGUAAACCAAA | 30.8 ± 3.3 | 6.09 ± 2.9 | 57.6 ± 8.5 | 34.3 ± 8.8 |
| UUUACAUACAUGUAAACCAAA | 99.4 ± 1.8 | 92.2 ± 2.8 | 80.1 ± 9.2 | 104 ± 6.2 |
| UUUGCCAACAUGUAAACCAAA | 81.1 ± 6.9 | 75.1 ± 8.3 | 75.1 ± 3.2 | 69.6 ± 5.9 |
| UGGGACUACAUGUAAACCAAA | 47.8 ± 5 | 14.6 ± 4.2 | 39.3 ± 4.7 | 43.2 ± 3.5 |
| UGAUGGGACAUGUAAACCAAA | 21.2 ± 0.81 | 29.1 ± 8 | 44.4 ± 1.8 | 19.7 ± 3 |
| UCGAGCCACAUGUAAACCAAA | 37.8 ± 2.9 | 17 ± 6.5 | 56.8 ± 2 | 38.8 ± 8.4 |
| UAGAGAAACAUGUAAACCAAA | 90.9 ± 6.2 | 69.8 ± 4.2 | 68 ± 8.5 | 82.9 ± 5 |
| UUGGGAUACAUGUAAACCAAA | 60.8 ± 1.6 | 20.8 ± 1.5 | 53.8 ± 2.2 | 15.5 ± 3.5 |
| UCAUGAGACAUGUAAACCAAA | 74.8 ± 9.9 | 47.2 ± 13 | 47.9 ± 0.82 | 86 ± 8.9 |
| UGGCGAGACAUGUAAACCAAA | 9.15 ± 1.6 | 43.9 ± 5.4 | 13.7 ± 1.1 | 63.3 ± 4.9 |
| UUACGCCACAUGUAAACCAAA | 72.4 ± 1.6 | 29.3 ± 8.7 | 70.9 ± 13 | 46.8 ± 7.1 |
| UUGGUGAACAUGUAAACCAAA | 73.3 ± 2.7 | 59.9 ± 6.1 | 64.5 ± 3.4 | 26.4 ± 1.9 |
| UCCUUCGACAUGUAAACCAAA | 69.6 ± 5.6 | 83.8 ± 12 | 90.6 ± 13 | 92.7 ± 16 |
| UAUGUUAACAUGUAAACCAAA | 101 ± 10 | 99.6 ± 12 | 82 ± 9.3 | 110 ± 6.9 |
| UUAAUAGACAUGUAAACCAAA | 82 ± 0.96 | 94.5 ± 5.3 | 68.5 ± 14 | 85.2 ± 8.2 |
